For data set [1], the system named is CCOC(=O)c1c(C)[nH]c2ccc(OCc3c(C(=O)OCC)c4cc(OS(=O)(=O)O)ccc4n3C(=O)OC(C)(C)C)cc12. The note with it: Homo sapiens; 20 uM.
Data set [2] has the same test system. Conditions: Homo sapiens; 40 uM.
For data set [3] the test system is unchanged. The note with it: Homo sapiens; 60 uM.
For data set [4] the test system is unchanged. Conditions: Homo sapiens; 20 uM. The source holds these as a separate data set.
The test system is the same in data set [5]. The note with it: Homo sapiens; 40 uM. The source holds these as a separate data set.
Data set [6] shares this test system. The note with it: Homo sapiens; 60 uM. The source holds these as a separate data set.

The term Km denotes the substrate concentration at which the rate is half of its maximum. Turning to “Coagulation factor XI (Homo sapiens) (letters omitted)”, the Km is 295 µM in data set [1], 328 µM in data set [2] and 1270 µM in data set [3]. Moreover, the Vmax was 32.3 mAU/min/µM in data set [4], 30.4 mAU/min/µM in data set [5] and 23.8 mAU/min/µM in data set [6].
